Experimental data as given in PubChem BioAssay AID1240 (Sanford-Burnham Center for Chemical Genomics, 2008).
Out of some 50,000 compounds screened, about 800 (1.6%) showed an effect of 50% or more. The list shows a part of the results.

biological target: Bcl-2-like protein 10 (Homo sapiens) (UniProt Q9HD36); experiment: Phenotype converters, Bcl-B/TR3 peptide binding displacement, primary biochemical FP (AID 1240); conditions: GST-Bcl-B / FITC-TR3 peptide fluorescence polarization; stronger effect = higher value; compound at 3.75 mg/L;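 further: 0% = Bcl-B with tracer peptide and DMSO and 100% = tracer peptide lacking Bcl-B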
UniProt Q9HD36, sequence (Q9HD36 whole entry, looked up): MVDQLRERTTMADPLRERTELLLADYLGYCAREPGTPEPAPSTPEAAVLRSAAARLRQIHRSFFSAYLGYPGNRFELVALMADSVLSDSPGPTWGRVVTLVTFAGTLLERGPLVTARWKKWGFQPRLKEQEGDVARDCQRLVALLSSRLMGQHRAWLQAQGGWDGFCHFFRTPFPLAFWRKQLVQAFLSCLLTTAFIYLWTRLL

SMILES | displacement [%]
CCCC(=O)Nc1nnc(COc2ccc(C)c(C)c2)s1 | 16.2
Cc1cc(-c2ccccc2)sc1/C(O)=C/c1nc2ccccc2[nH]c1=O | 112
Cc1cccc(C)c1OCC(=O)NCc1ccccc1 | 12.4
COc1ccccc1N1CCN(/N=C\c2cccc(Br)c2)CC1 | -15.2
CCc1ccc(/C=C2/Sc3ccccc3C2=O)cc1[N+](=O)[O-] | 12.6
O=C(O)/C=C/C(=O)Nc1nc(-c2ccc3ccccc3c2)cs1 | -2.4
Clc1ccc(N2CCN(/N=C\c3ccc4c(c3)OCO4)CC2)cc1 | -7.4
COc1ccc2c(c1[N+](=O)[O-])CCC/C2=N\OC(=O)c1ccccc1 | 11.6
COc1ccc(CCNC(=O)C(=O)NCC(C)C)cc1 | 6.1
Cc1ccc(/C=N/c2ncn[nH]2)c(O)c1 | -1.6
O=C(Nc1ccccc1)Nc1nnc(COc2ccccc2)s1 | -5.7
CCCCSc1nnc2c(n1)OC1(Nc3ccccc3-2)C(=O)Nc2ccc(Br)cc21 (configuration not stated) | -5.4
O=C(NNC(=O)c1ccc(Oc2ccc(C(=O)NNC(=O)c3ccncc3)cc2)cc1)c1ccncc1 | 2.7
CC1(C)C(C=C(Cl)Cl)C1C(=O)Nc1ccc(C(=O)O)cc1 (configuration not stated) | 3.7
O=C(CC(c1ccc(Cl)cc1)S(=O)(=O)c1ccccc1)c1ccccc1 (configuration not stated) | -13.7
COC(=O)CN1C(=O)C(=Cc2ccncc2)SC1=S | 13.9
Cc1sccc1/C=N/NC(=O)c1cccnc1 | 2.8
COc1ccccc1CNC(=O)COc1ccc(Cl)cc1C | -9.4
O=C(O)CCC(=O)N1N=C(c2ccccc2)CC1c1cccs1 (configuration not stated) | 32.4
COc1ccc(NC(=O)CN(c2cccc([N+](=O)[O-])c2)S(=O)(=O)c2ccccc2)cc1 | 6.8
O=C(/C=C/c1cc(Br)cs1)Nc1cccc(C(F)(F)F)c1 | 6.5
O=C(ON1C(=O)C2C3c4ccccc4C(c4ccccc43)C2C1=O)c1ccccc1 (configuration not stated) | 2.4
COc1ccc(CCNC2CC(=O)N(c3ccc(F)cc3)C2=O)cc1 (configuration not stated) | 1.9

SMILES | displacement [%]
Clc1ccc(-c2nc3ccc(N=Cc4ccco4)cc3[nH]2)c(Cl)c1 | -9.8
Cc1ccc(N(CC(=O)Nc2ccccc2Cl)S(C)(=O)=O)cc1Cl | 10
CC(=O)N1CCN(c2cc(N3CCC(C)CC3)c(F)cc2[N+](=O)[O-])CC1 | -4.1
COc1ccc(CCC(=O)Nc2ccc3c(c2)OCCO3)cc1 | -10.4
COCc1cc(C)nc(N/N=C/c2c[nH]c3ccccc23)c1C#N | -5.4
CCCCOC(=O)C1=C(C)NC2=C(C(=O)CC(C)(C)C2)C1c1ccc(C)cc1 (configuration not stated) | 1.8
COc1cccc(OCC(=O)NNC(=O)COc2ccccc2OC)c1 | -2.8
O=S(=O)(Nc1cccc(C(F)(F)F)c1)c1ccc2ccccc2c1 | 8.8
C/C(=N\NC(=O)c1cc(C)[nH]n1)c1ccc2ccccc2c1O | -15
CCOC(=O)c1c(NC(=O)c2c(-c3ccccc3)noc2C)sc(C(=O)N(CC)CC)c1C | -1.1
C=CS(=O)(=O)c1ccc(C(C)(C)C)cc1 | 4.8
Cc1cc2nn(-c3ccccc3)nc2cc1NC(=O)/C=C/c1ccccc1 | 5.1
COCCOC(=O)C1=C(C)NC(C)=C(C(=O)OCCOC)C1c1ccc(-c2cccc(Br)c2)o1 | 7.3
O=[N+]([O-])c1cc(-c2nnc(-c3ccc(Br)o3)o2)ccc1Cl | -11
Cc1ccc(-c2nnc(SCC(=O)Nc3ccc(F)cc3)o2)cc1 | 7.8
CC1(C)CC(NS(=O)(=O)c2ccc3ccccc3c2)CC(C)(C)N1 | -6.5
CCCCc1ccc(-c2csc(/C(C#N)=C/c3ccc(O)c(OC)c3)n2)cc1 | 2.4
CCOC(=O)c1c(NC(=O)CSc2nccn2C)sc2c1CCCC2 | 16.6
O=C(Nc1ccc(NC(=O)c2ccc([N+](=O)[O-])cc2Cl)cc1)c1ccco1 | -2.4
CCOc1ccc2cc(C(=O)c3ccccc3)c(=O)oc2c1 | 6.5
CCCOc1ccc(N2C(=O)CC(N(CCc3ccccc3)C(=O)/C=C/C(=O)O)C2=O)cc1 (configuration not stated) | 12.6
CCC12CC3CC(C1)CC(C(=O)N/N=C1/CN4CCC1CC4)(C3)C2 | -8
COc1ccc(NC(=O)C(=O)NCC2CCCO2)cc1 (configuration not stated) | -1.6

SMILES | displacement [%]
COC(=O)c1ccc(C2C(C(=O)OCCOc3ccccc3)=C(C)NC3=C2C(=O)CCC3)cc1 (configuration not stated) | -33.1
COC(=O)c1ccc(NC(=O)COc2c(C)cccc2C)cc1 | -13.3
O=C(N=Nc1c(Cl)cc(Cl)cc1Cl)c1ccc(-n2c(O)c3ccccc3c2O)cc1 | 7.6
COc1ccc2nc(SCC(=O)Nc3cc(C)ccc3C)[nH]c2c1 | -8.5
CCCC(C)NS(=O)(=O)c1cc(Cl)ccc1Cl (configuration not stated) | 14.3
Cc1cc(C(N)=O)c(-c2ccccc2)o1 | 9
C=CCN1C(=O)/C(=C\c2ccc(OCCOCCOc3ccc(C)cc3)cc2)SC1=S | 9
O=C(c1cccc([N+](=O)[O-])c1)c1ccc2c(c1)C(=O)N(N1C(=O)c3ccccc3C1=O)C2=O | 0.5
O=C(N/N=C/c1c(F)cccc1Cl)c1ccc(Br)cc1 | 7.9
NC(=O)NC(c1ccccc1)c1cccc(Cl)c1 (configuration not stated) | 0.2
Cc1onc(-c2c(Cl)cccc2Cl)c1C(=O)NCc1ccc(Cl)cc1 | 13.1
COc1ccc2[nH]c3c(c2c1)CCCC3=O | -0.9
Nc1ccc(Br)c(NC(=O)c2ccccc2)c1 | 3
O=C(O)/C=C\C(=O)Nc1ccc2c(c1)Cc1ccccc1-2 | 2.4
CCN1C(=O)/C(=C\c2cc(Br)ccc2OCc2ccccc2)SC1=S | 3.3
O=S(=O)(c1ccc(Br)cc1Br)n1cnc2ccccc21 | 5
COc1ccccc1NC(=O)COc1ccc(C)cc1 | -1.1
Cc1ccc(NC(=O)NC(C)(C)C)cc1 | 6.8
COc1cc(/C=N/n2cnnc2)ccc1OCc1cccc2ccccc12 | 46.4
N#C/C(=C\c1cn(CC(=O)Nc2ccccc2)c2ccccc12)c1nc2ccccc2[nH]1 | 5
Oc1ccc(Br)cc1/C=N/Nc1ccccn1 | -15.9
CCOC(=O)c1c(C)nc(-c2ccccc2)nc1NC(C)=O | 0.1
Cc1cc(Br)cc(C)c1NC(=O)c1ccc2c(c1)OCCO2 | 5.4

SMILES | displacement [%]
COc1ccc(N(C(C)C(=O)N/N=C/c2ccc(N(C)C)c(Br)c2)S(C)(=O)=O)cc1 (configuration not stated) | 1.9
CCOc1cc(/C=c2/sc3nc4ccccc4n3c2=O)ccc1OS(=O)(=O)c1ccc(C)cc1 | 14.1
CC(=O)N1c2ccc(Cl)cc2C2C=CCC2C1c1cccc2ccccc12 (configuration not stated) | -10.2
O=c1cc(Nc2ccc(Br)cc2)c2ccccc2n1-c1ccccc1 | -5.3
O=C1c2ccccc2C(=O)N1CCCCN(C(=O)c1cccc([N+](=O)[O-])c1)c1ccc(F)cc1F | 16.1
Cn1nnnc1NC(=O)c1ccccc1F | 9.6
Cc1ccc(OCCOc2ccc(Cl)cc2C=O)cc1 | -0.6
CCOc1ccccc1NS(=O)(=O)Cc1ccccc1 | 7.5
CCCOc1ccc(C(C)=O)cc1CC(C(N)=O)C(N)=O | -8
Cc1cc(C)nc(/N=C(\N)N2CCc3ccccc3C2)n1 | -1.9
C=CCN(CC=C)C(=O)CCN1C(=O)c2ccccc2C1=O | -7.3
NC(=O)c1c(NC(=O)C2C3C=CC(C3)C2C(=O)O)sc2c1CCCC2 (configuration not stated) | -9.3
Cc1ccc(OCC(=O)NCc2ccc(F)cc2)c(C)c1 | -1.7
Cc1ccccc1OCCCCN1CCCC1 | 1.1
CC1=C(C#N)c2nc(N)c(C#N)c(C)c2/C1=C\c1ccc(-c2cccc([N+](=O)[O-])c2)o1 | -4.6
COC(=O)C1=C(C)NC(=O)NC1c1cc(OC)c(OC)cc1OC (configuration not stated) | -4.2
O=C(COc1ccc(Cl)cc1)Nc1ccccc1C(F)(F)F | -7.8
CCOC(=O)C1=C(C)NC(SC)=NC1c1ccc(OC)cc1 (configuration not stated) | -15
O=C(Nc1nc(-c2ccc3ccccc3c2)cs1)c1ccncc1 | 5.9
Cc1c(C(=O)NC(c2ccccc2)c2ccccc2)cccc1[N+](=O)[O-] | -1.5
O=C(Nc1ccc(Cl)cc1Cl)c1nn2c(c1Br)NC(c1ccccc1)CC2C(F)(F)F (configuration not stated) | 6.2
O=C(O)/C=C\C(=O)Nc1ccccc1Br | 10.3
COC(=O)c1c(N)sc(C(=O)Nc2ccc(OC)cc2)c1C | -5.1

SMILES | displacement [%]
COc1ccc(CC(=O)Nc2cccc(I)c2)cc1OC | -9.2
O=C(COc1ccccc1[N+](=O)[O-])N/N=C/c1cc(I)ccc1O | 25.9
COc1cc([N+](=O)[O-])ccc1NC(=O)COc1ccc(-c2ccc(C)cc2)cc1 | -9
COc1ccc(-c2nnnn2C)cc1S(=O)(=O)Nc1ccc(Br)cc1 | 7.3
CN1C(=O)/C(=C\c2ccc(Sc3ccc(Cl)cc3)o2)SC1=S | -6.7
O=C1NC(=S)S/C1=C/c1cc(Br)ccc1OCc1ccccc1Cl | 2.9
CCCCCCNC(=O)CN1C(=O)c2ccccc2C1=O | 6.7
CC1(C)c2ssc(=S)c2-c2ccccc2N1C(=O)CN1CCOCC1 | 6.4
O=S(=O)(/N=C(/Nc1cccc(O)c1)c1ccccc1)c1ccccc1 | 10.6
CCC1(CO)COC(c2ccco2)OC1 (configuration not stated) | 4.7
COC(=O)c1ccccc1NC(=O)c1ccc(CN2CCc3ccccc3C2)cc1 | 9.2
CCCN1CCC(=NNC(=O)CCC(=O)NN=C2CCN(CCC)CC2)CC1 | -21.5
Cc1ccc(N/C(N)=N\c2nc(C)cc(C)n2)c(C)c1 | -4
O=c1[nH]c(=O)n(-c2ccc(Cl)cc2)c(O)c1/C=C1/C=CC=N1 | -46
COC(=O)c1ccc(C(=O)OC)c(NC(=O)c2ccc(C)c([N+](=O)[O-])c2)c1 | 22.3
Nc1cc(-c2nc3ccccc3s2)ccc1Cl | -4.5
Cc1cccc(C2(c3cccc(C)c3)CC2C(=O)Nc2ccccc2F)c1 (configuration not stated) | -2.5
COc1nccnc1NS(=O)(=O)c1ccc(NC(=O)c2ccc(C(C)=O)cc2)cc1 | -3.4
O=c1c2c(nc3cc(-c4ccc(Cl)cc4)[nH]n13)CCCC2 | -4.5
CC1Cn2c(nc3sc4c(c3c2=O)CC(C)(C)OC4)N1CCO (configuration not stated) | -0.7
